{
  "source": "paper PMC4336329",
  "about": "(PLoS ONE, 2015)",
  "note": "Screen size: about 310,000 compounds; about 14,000 (4.5%) showed an effect of 50% or more. Effects have a minus sign here. Some of the results follow.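 Further: peak tail current of the secondary pulse compared with the same well before compound.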",
  "data": [
    {"molecular_target": "human ether-à-go-go-related gene (hERG) potassium channel (human, UniProt Q12809)", "sequence (Q12809 whole entry, looked up)": "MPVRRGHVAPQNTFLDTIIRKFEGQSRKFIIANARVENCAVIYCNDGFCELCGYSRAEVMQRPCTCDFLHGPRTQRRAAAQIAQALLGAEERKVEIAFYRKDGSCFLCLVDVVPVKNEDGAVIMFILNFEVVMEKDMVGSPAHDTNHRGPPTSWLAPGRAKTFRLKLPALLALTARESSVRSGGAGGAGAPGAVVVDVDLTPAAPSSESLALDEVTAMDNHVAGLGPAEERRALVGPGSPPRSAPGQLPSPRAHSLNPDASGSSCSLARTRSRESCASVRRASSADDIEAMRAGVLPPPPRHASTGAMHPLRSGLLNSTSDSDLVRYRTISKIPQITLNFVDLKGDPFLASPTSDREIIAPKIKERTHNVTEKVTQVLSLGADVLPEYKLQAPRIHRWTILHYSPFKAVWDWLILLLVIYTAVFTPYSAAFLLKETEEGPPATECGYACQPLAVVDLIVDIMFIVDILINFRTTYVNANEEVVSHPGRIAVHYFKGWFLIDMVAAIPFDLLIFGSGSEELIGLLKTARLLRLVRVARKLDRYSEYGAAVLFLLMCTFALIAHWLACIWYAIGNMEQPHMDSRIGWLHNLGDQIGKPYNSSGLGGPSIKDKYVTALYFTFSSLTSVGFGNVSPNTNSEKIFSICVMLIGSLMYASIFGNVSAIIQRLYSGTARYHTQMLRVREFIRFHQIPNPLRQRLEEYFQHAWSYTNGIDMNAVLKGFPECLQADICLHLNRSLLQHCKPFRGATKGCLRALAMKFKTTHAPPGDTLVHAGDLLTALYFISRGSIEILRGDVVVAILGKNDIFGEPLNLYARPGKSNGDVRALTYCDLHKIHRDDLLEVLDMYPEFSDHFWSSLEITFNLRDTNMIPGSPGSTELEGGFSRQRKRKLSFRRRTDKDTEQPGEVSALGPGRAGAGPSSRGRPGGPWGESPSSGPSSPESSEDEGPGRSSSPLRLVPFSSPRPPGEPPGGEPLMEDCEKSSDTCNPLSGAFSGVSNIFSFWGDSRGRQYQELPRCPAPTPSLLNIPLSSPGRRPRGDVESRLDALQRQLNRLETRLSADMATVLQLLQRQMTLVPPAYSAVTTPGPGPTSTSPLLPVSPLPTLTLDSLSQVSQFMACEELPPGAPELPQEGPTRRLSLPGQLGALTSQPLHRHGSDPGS", "assay": "primary screen, population patch clamp on CHO cells stably expressing hERG", "units": {"hERG current change (%, negative = inhibition) at 10uM": "%"}, "values": [
      {"smiles": "CC(C(=O)NCCc1ccc(S(N)(=O)=O)cc1)N1C(=O)CC(C)(C)Sc2ccccc21", "note": "(centres unmarked)", "hERG current change (%, negative = inhibition) at 10uM": 0.73},
      {"smiles": "COc1ccc(CNC(=O)CN(c2cccc([N+](=O)[O-])c2)S(C)(=O)=O)cc1", "hERG current change (%, negative = inhibition) at 10uM": -10.5},
      {"smiles": "CN(C)C(CNC(=O)c1cccc(S(=O)(=O)Nc2ccc(Br)cc2)c1)c1ccco1", "note": "(centres unmarked)", "hERG current change (%, negative = inhibition) at 10uM": -24.2},
      {"smiles": "CC(C)CC(NC(=O)c1ccc(Cl)cc1Cl)C(=O)O", "note": "(centres unmarked)", "hERG current change (%, negative = inhibition) at 10uM": 8.01},
      {"smiles": "Cc1cc(C(=O)COC(=O)C2=NNC(=O)CC2)c(C)n1-c1cccc(C(F)(F)F)c1", "hERG current change (%, negative = inhibition) at 10uM": -9.25},
      {"smiles": "Cc1c(Cl)cccc1NC(=S)N1CCC(N(C)CC2CCCO2)CC1", "note": "(centres unmarked)", "hERG current change (%, negative = inhibition) at 10uM": -2.97},
      {"smiles": "Cc1cccc(N2CCN(C(=O)c3ccoc3C)CC2)c1C", "hERG current change (%, negative = inhibition) at 10uM": -16.2},
      {"smiles": "Cc1ccc(S(=O)(=O)N2CCOCC2)cc1C(=O)OCCOc1cccc(Cl)c1", "hERG current change (%, negative = inhibition) at 10uM": -9.45},
      {"smiles": "COc1ccc(CNC(=O)CN2C(=O)c3ccc([N+](=O)[O-])cc3C2=O)cc1", "hERG current change (%, negative = inhibition) at 10uM": -1.07},
      {"smiles": "Cc1cccc2cc(-c3nc4c(C)cccn4c3NCc3ccco3)c(=O)[nH]c12", "hERG current change (%, negative = inhibition) at 10uM": -11.5},
      {"smiles": "O=C(NC1CCN(Cc2ccccc2)CC1)c1ccc(Cn2c(=S)[nH]c3ccc(N4CCOCC4)cc3c2=O)cc1", "hERG current change (%, negative = inhibition) at 10uM": 11.3},
      {"smiles": "CC(C)CCC(CCN1CCCC1)c1ccc2c(c1)OCO2.O=C(O)C(=O)O", "note": "(centres unmarked)", "hERG current change (%, negative = inhibition) at 10uM": -78.1},
      {"smiles": "O=C(Nc1ccccc1)/C(=C/c1ccc([N+](=O)[O-])cc1)NC(=O)c1ccccc1", "hERG current change (%, negative = inhibition) at 10uM": 8.2},
      {"smiles": "C[C@@H]1CCC(=O)N(C[C@@H](C)CSc2ccccc2)CC1", "hERG current change (%, negative = inhibition) at 10uM": -18.2},
      {"smiles": "CC(=O)c1ccc2c(c1)C1C=CCC1C(c1ccncc1)N2", "note": "(centres unmarked)", "hERG current change (%, negative = inhibition) at 10uM": -21},
      {"smiles": "CC(C(=O)Nc1cccc([N+](=O)[O-])c1)n1nnc2ccccc21", "note": "(centres unmarked)", "hERG current change (%, negative = inhibition) at 10uM": -33.5},
      {"smiles": "COc1cccc(OC)c1C(=O)N1CCN(Cc2ccccc2C(F)(F)F)CC1.O=C(O)C(=O)O", "hERG current change (%, negative = inhibition) at 10uM": 6.44},
      {"smiles": "O=C(CCc1ccccc1)Nc1ccc2c(c1)C(=O)OC2", "hERG current change (%, negative = inhibition) at 10uM": 2.82},
      {"smiles": "Cc1ccc(OCC(=O)NC2CC(C)(C)NC(C)(C)C2)cc1C", "hERG current change (%, negative = inhibition) at 10uM": -1.24},
      {"smiles": "CCOC(=O)c1c(NC(=O)CC2Nc3ccccc3NC2=O)sc(C)c1C", "note": "(centres unmarked)", "hERG current change (%, negative = inhibition) at 10uM": 10.6},
      {"smiles": "Cc1ccc(CC(=O)Nc2nncs2)cc1", "hERG current change (%, negative = inhibition) at 10uM": 14.5},
      {"smiles": "COCCNS(=O)(=O)c1cccn1-c1ncc(C(F)(F)F)cc1Cl", "hERG current change (%, negative = inhibition) at 10uM": 3.15},
      {"smiles": "O=C(Oc1cccc(C(=S)N2CCOCC2)c1)c1ccccc1", "hERG current change (%, negative = inhibition) at 10uM": 17.2}
    ]}
  ]
}
